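1) Cells in 96-well plates. 2) Compound, 48 h, 5 concentrations. 3) Linear interpolation between surrounding doses. 4) Unreached endpoint = highest concentration. GI50 marks 50% less growth. At the TGI there is no net growth.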
System: NCI-H322M lung
Test: DTP human tumour cell line panel, 48 h

Compound	TGI	GI50
CCOP(=O)(/C=C\n1cc(C)c(=O)[nH]c1=O)OCC	> 100 µM	
CC(=O)Nc1ccc(S(=O)(=O)N/N=C/CN2C(=O)c3ccccc3C2=O)cc1	> 100 µM	
COc1ccc(N2C(=O)CC(=O)N(C(=O)COc3ccc(OCC(=O)N4C(=O)CC(=O)N(c5ccc(OC)cc5)C4=S)cc3)C2=S)cc1	92.1 µM	
O=C1OCC2=C1C(c1cccc(Cl)c1)c1cc3c(cc1N2CCO)OCCO3 (configuration not stated)	> 100 µM	0.796 µM
CN(C(=O)C12C3C4C1C1C2C3C41C(N)=O)C(C)(C)C (configuration not stated)	> 100 µM	
CC1CCCC2(CC[N+](C)(CCC[N+](C)(C)C)CC2)C1 (configuration not stated)	> 100 µM	
C=CCN=C(N/N=C/c1ccc([N+](=O)[O-])o1)NS(=O)(=O)c1cc(C(=O)Nc2ccc(Cl)cc2)c(Cl)cc1SC	> 100 µM	> 100 µM
O=[N+]([O-])c1ccc(-n2nnc(C3=NCCN3)c2-c2ccccc2)cc1	> 100 µM	
O=C1NC(=O)C(C(CC(=O)c2ccc([N+](=O)[O-])cc2)c2ccccc2)C(=O)N1 (configuration not stated)	> 100 µM	
CCNC(=S)N=Nc1c(O)[nH]c2ccc([N+](=O)[O-])cc12	> 100 µM	
N#C/C(=C\c1ccsc1)c1nc2ccccc2o1	> 100 µM	79.9 µM
CC(NC(=O)C(NC(=O)CNC(=O)OC(C)(C)C)C(C)C)C(=O)Oc1c(Cl)c(Cl)c(Cl)c(Cl)c1Cl (configuration not stated)	62.8 µM	
COc1ccc(C/C(C)=C(/c2ccc(OCCN3CCCCC3)cc2)c2ccc(OC(=O)NCc3ccccc3)cc2)cc1	0.83 µM	0.43 µM
Cc1cc(C)nc(SC2=C(Nc3ccc(C)c(Cl)c3)C(=O)N(Cc3ccccc3)C2=O)n1	> 160 µM	> 160 µM
CC[C@@]1(O)C(=O)OCc2c1cc1n(c2=O)Cc2cc3cc4c(cc3nc2-1)OCO4	1.12 µM	
CC1=NN(C(=O)c2ccccc2O)C(=O)/C1=C/c1ccc(O)cc1	> 100 µM	
O=C(O)CC[C@H](NC(=O)c1ccc(-n2nc3ccc(O)cc3nc2=O)cc1)C(=O)O	> 100 µM	
CC(=O)[CH-]C(=O)c1ccccc1.CC(=O)[CH-]C(=O)c1ccccc1.CC[O-].CC[O-].[Hf+4]	> 100 µM	26.7 µM
C=C/C=C/NC(=O)OCc1ccccc1	> 100 µM	
CC(=C(c1ccccc1)c1ccccc1)N1C(=O)CC(=O)N1C	> 100 µM	
O=C1/C(=C/c2ccccc2)CN(C(=O)CCN2CCOCC2)C/C1=C\c1ccccc1	17.8 µM	
ClCCCc1ccccc1C1=NCCc2ccccc21	> 100 µM	
N#CC1(C#N)NC(c2cccs2)C(C#N)(C#N)NC1c1cccs1 (configuration not stated)	> 100 µM	
CCN(CC)N1C(=O)[N+](CC)(CC)N=C1[O-]	> 100 µM	
O=c1[nH]nc(-c2ccccc2)n1/N=C\c1ccccc1	> 100 µM	
COc1ccc2c(c1)c(CC(=O)[Se]C)c(C)n2C(=O)c1ccc(Cl)cc1	> 0.921 µM	> 0.421 µM
C[C@@]12CCC(=O)c3coc(c31)C(=O)c1cc3c(cc12)C(=O)C=CC3=O	> 100 µM	> 1 µM

Compound	TGI	GI50
COC1CC(O[C@H]2CC[C@@]3(C)[C@H](CC[C@@H]4[C@@H]3CC[C@]3(C)[C@@H](C5=CC(=O)OC5)[C@@H](OC(C)=O)C[C@]43O)C2)OC(C)C1O (some centres not stated)	< 0.01 µM	< 0.01 µM
CC(=O)Oc1cc2c(cc1OC(C)=O)OCC(c1ccc(C)cc1)C2 (configuration not stated)	107 µM	
CSc1nnc(CCC(=O)Nc2c(C)cccc2C)o1	> 100 µM	
Cc1c(Cl)cccc1C(=O)Nc1nc2c(s1)CN(C(=O)c1ccc(C(F)(F)F)cc1)CC2	> 50 µM	0.272 µM
CN(C)c1ccc(/C(F)=C(F)/C(F)=C(F)/C(F)=C(\F)c2ccc(Br)cc2)cc1	> 87.3 µM	
COc1ccc2c(CN3CCCC[C@H]3C(=O)O)cc3cc4c(cc3c2c1)OCO4	38.7 µM	4.31 µM
Cc1ccccc1OCC(O)CN1CCN(c2ccc(Cl)cc2)CC1 (configuration not stated)	40 µM	23.4 µM
CN(C)CCN1C(=O)c2c(c3c4ccccc4n4c3c3c2c2ccccc2n3C2CC(O)C(O)C4(C)O2)C1=O (configuration not stated)	11.6 µM	1.97 µM
CCNCCCn1c2c(c3ccc(Cl)cc3c1=O)C(=O)c1cc(OC)cnc1-2	3.03 µM	1.08 µM
COc1cccc(N2C(=O)C3c4[nH]c5ccccc5c4C4CCCC4C3C2=O)c1 (configuration not stated)	> 10 µM	
CCOC(=O)CC[C@H](NC(=O)c1nc[nH]c1[N+](=O)[O-])C(=O)OCC	> 100 µM	
CN(C)c1nc(N)nc(CS)n1	> 100 µM	
Cc1cccc(/C=N/NC(=S)N2CCCC2)n1	0.571 µM	2.1 µM
COC(=O)C1CCC(=S)N1C(=O)c1ccccc1 (configuration not stated)	> 100 µM	
CC(C)CCCC(C)[C@H]1CCC2[C@@H]3CCC4Cc5nc6c(nc5C[C@]4(C)C3CC[C@@]21C)CC1CC[C@@H]2C(CC[C@@]3(C)C2CC[C@@H]3C(C)CCCC(C)C)[C@@]1(C)C6 (some centres not stated)	> 100 µM	
CO/N=C1\CC(NC(=O)CNC(=O)OC(C)(C)C)c2ccsc21 (configuration not stated)	> 100 µM	
Cc1ccc(OCC2OC(n3cnc4c(Cl)nc(N)nc43)CC2Oc2ccc(C)cc2)cc1 (configuration not stated)	> 81.4 µM	
OC1(C23CC4CC(CC(C4)C2)C3)CSCC1(O)C12CC3CC(CC(C3)C1)C2 (configuration not stated)	> 100 µM	
CC(=O)OCC1OC(SC2=N/C(=C\c3ccc(Br)s3)C(=O)N2CN2CCOCC2)C(OC(C)=O)C(OC(C)=O)C1OC(C)=O (configuration not stated)	35.2 µM	
C[C@H](OCc1ccccc1)C(=O)N1CCS(=O)(=O)N2CCC[C@@H]2C1=O	> 100 µM	
O=C(N/N=C/C=C/c1ccc([N+](=O)[O-])o1)c1cc2ccccc2cc1O	9.84 µM	2.36 µM
CCC1(c2ccccc2)Sc2ccccc2-n2cccc2C1=O (configuration not stated)	> 10 µM	
O=[N+]([O-])c1ccc2sc(C=Nc3cnccn3)cc2c1	> 100 µM	
CN(C)C(=O)OC1C(=O)N(C)c2ccc(Cl)cc2C2(c3ccccc3)N1C2(Cl)Cl (configuration not stated)	> 100 µM	
NCCCN(CCCN(C(=O)Nc1ccccc1)c1ccccc1)C(=O)Nc1ccccc1	> 100 µM	
NC(=O)N/N=C1/CCC(O)CC1CC(=O)O (configuration not stated)	> 100 µM	
CSCCC(N)C(=O)NCCNc1ccc(NCCNC(=O)C(N)CCSC)c2c1C(=O)c1ccccc1C2=O (configuration not stated)	3.61 µM	

Compound	TGI	GI50
CCOC(C[C@H](O[Si](C)(C)C(C)(C)C)[C@H]1COC(=S)S1)OCC	> 100 µM	
COc1cc(OC)c2nc(C)c3c(c2c1)SCC3	55 µM	
O=C(C/C(=N/O)C(=O)NC1=C(Cl)C(=O)c2ccccc2C1=O)CC(c1ccccc1)c1c(O)c2ccccc2oc1=O (configuration not stated)	66 µM	
O=C1C(Cl)=C(OCCCl)C(=O)c2c(O)ccc(O)c21	29.6 µM	
Cc1ccc(S(=O)(=O)n2c3ccc(Br)cc3c3nc4ccccc4nc32)cc1	> 100 µM	
Cc1cc(NCCCN(C)C)c2ccc3c(ccc4c(NCCCN(C)C)cc(C)nc43)c2n1	0.566 µM	0.204 µM
NC(=O)CN(CC(N)=O)C(N)=O	> 100 µM	
CCCCCCCC/C=C\CCCCCCC/C=C1\C[C@](/C=C/C(=O)OC)(CO)OC1=O	28.1 µM	
Cc1ccc2c(c1)-c1c3c(nn1-c1ccccc1)-c1ccccc1SC3O2 (configuration not stated)	> 100 µM	
O=C1CCCCCCCCCCC1CN1CCCC1 (configuration not stated)	> 100 µM	
CC(CN(C)C)/C(=N\Nc1ccccc1)c1ccccc1 (configuration not stated)	> 100 µM	
CCCCCCCCCCCCCCCC(=O)OCC1OC(n2cc(F)c(=O)[nH]c2=O)C(N)C(O)C1O (configuration not stated)	43.6 µM	
COc1cc2ccc(=O)oc2cc1O	> 625 µM	
Cc1ccc(/C(O)=C/c2nc3ccccc3sc2=O)c(C)c1	> 100 µM	
Nc1ncnc2c1N=C(c1ccc3c(c1)OCO3)CC(c1ccc([N+](=O)[O-])cc1)N2 (configuration not stated)	> 100 µM	> 100 µM
COc1ccc(CCN2CC=Cn3c2nc2ccccc2c3=O)cc1	> 100 µM	0.0633 µM
Cc1ccc([S@](=O)c2occc2C=O)cc1	29.5 µM	
COc1c(O)c(C=O)c2c(O)c(-c3c(C)cc4c(C(C)C)c(OC)c(O)c(C=O)c4c3O)c(C)cc2c1C(C)C	17.4 µM	
CSCSSC	> 100 µM	
CC1(C)C2CCC13C(=O)C1OC3(C2)C2C(=O)c3ccccc3C(=O)C12 (configuration not stated)	> 100 µM	> 100 µM
O=C1CCCCC/C1=C\c1ccc([N+](=O)[O-])cc1	> 100 µM	
Cc1cc([N+](=O)[O-])c(NS(=O)(=O)c2cccc(C(=O)O)c2)cc1-c1cccnc1	> 100 µM	> 100 µM
C=C(C(N)=O)c1ccc([N+](=O)[O-])o1	79.7 µM	
COc1cc2nc(N3CCCC3)nc(NCc3ccccc3)c2cc1OC	18 µM	5.11 µM
COc1cccc(-c2c[nH]c3c(N/N=C/c4ccncc4)ncnc23)c1	> 25 µM	5.51 µM

Source: PubChem BioAssay (NCI)
